The text below walks through data of paper PMC4068158.

Protein sequences, listed by entry. Tags and fused reporters are not part of them. Lines headed by an entry give the natural chain unless they say otherwise; changes in a name come on top.
UniProt P61266: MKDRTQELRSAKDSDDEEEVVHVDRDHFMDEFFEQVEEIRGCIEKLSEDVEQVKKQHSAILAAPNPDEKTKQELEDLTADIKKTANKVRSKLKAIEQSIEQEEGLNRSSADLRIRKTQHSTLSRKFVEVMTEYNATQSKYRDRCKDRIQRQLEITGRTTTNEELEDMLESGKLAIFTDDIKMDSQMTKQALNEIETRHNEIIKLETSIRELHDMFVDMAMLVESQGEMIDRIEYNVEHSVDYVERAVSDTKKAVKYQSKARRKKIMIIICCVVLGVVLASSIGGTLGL
UniProt O95292: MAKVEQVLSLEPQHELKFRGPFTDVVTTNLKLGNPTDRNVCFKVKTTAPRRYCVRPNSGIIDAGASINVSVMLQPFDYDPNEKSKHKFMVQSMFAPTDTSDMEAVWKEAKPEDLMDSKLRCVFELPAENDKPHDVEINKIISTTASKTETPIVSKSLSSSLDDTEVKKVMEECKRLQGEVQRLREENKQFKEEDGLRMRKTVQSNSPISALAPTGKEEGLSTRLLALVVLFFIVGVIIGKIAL

Assay [1] concerns the target Flag-STX1B wild type (human) (UniProt P61266). Nature of the assay: co-IP; Flag-STX1A or Flag-STX1B, wild type or mutant, immunoprecipitated; VAPB by immunoblot; cells not stated (Figure S2C). Background: In western blotting, separated proteins are transferred to a membrane and probed.
The target in assay [2] is Flag-STX1B F32A-F33A (human) (UniProt P61266). Described as above.

No constants are given. Whether binding was seen depends on the method and setting. In cells and extracts the contact can be indirect. Some results given as binding are weak or reduced against the parent protein; the word gives no strength.

Take “endogenous VAPB (human cells) (from UniProt O95292 1-243)”: the binding result in assay [1] and in assay [2] was “binds” each time.
